Whole data set: some 33,000 sequences, median “E-score (-0.5 to 0.5)” near -0.054, cut for the highest 2% near 0.35. The list shows a part of the results.
Target: T1, Stb5 (UniProt P38699)
T1 sequence: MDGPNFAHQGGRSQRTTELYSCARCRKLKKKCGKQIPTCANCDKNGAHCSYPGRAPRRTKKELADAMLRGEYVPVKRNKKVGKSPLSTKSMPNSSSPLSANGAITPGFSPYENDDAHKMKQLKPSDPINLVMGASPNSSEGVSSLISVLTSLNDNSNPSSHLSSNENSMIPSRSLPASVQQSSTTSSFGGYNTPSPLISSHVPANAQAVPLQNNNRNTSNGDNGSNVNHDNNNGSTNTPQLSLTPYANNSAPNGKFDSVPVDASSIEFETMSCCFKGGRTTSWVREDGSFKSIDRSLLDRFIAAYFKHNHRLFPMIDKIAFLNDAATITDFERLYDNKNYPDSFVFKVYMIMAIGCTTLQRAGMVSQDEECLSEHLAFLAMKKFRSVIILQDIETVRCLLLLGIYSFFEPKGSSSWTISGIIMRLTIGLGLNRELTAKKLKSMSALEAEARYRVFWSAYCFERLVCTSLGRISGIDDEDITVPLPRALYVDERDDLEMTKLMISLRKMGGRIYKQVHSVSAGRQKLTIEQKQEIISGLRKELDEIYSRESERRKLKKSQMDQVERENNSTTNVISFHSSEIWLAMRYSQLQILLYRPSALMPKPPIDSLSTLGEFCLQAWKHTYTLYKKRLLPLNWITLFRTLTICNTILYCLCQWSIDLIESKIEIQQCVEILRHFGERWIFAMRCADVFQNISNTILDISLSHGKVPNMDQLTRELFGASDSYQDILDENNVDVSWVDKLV
Assay: PBM E-score (8-mer binding enrichment) (E-score (-0.5 to 0.5)); higher = stronger / more preferred TF binding; most listed sequences are background and not binding sites
Settings: protein concentration: 200 nM; construct: GST-full length
In short: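 Universal all-10-mer Agilent arrays, double-stranded by primer extension on fresh or once-stripped slides, were probed with about 100-200 nM GST-tagged yeast transcription factors made by PURExpress. Fluorescent anti-GST detected bound protein, and masliner normalised the scans. E-scores from the Universal PBM Analysis Suite were given to each ungapped eight-base word pooled with its reverse complement.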

Sequence | PBM E-score
CAATCGTA | -0.225
CGGTCTAG | 0.174
GGAGGGCA | -0.0956
CAATTTCA | -0.0803
AAAATACG | 0.00986
GACTCTAC | -0.136
CAGTACTG | -0.0684
ATGGATGC | -0.22
ATTAACCG | 0.257
TACTGGAA | -0.113
CACTGCAC | -0.172
AGTTCTTG | -0.195
AAGATCGT | -0.0744
ATGGTAAA | -0.215
CGGAATAA | 0.132
CTTTTTAC | 0.145
CAGGGTCG | 0.211
AAAGATCC | 0.154
AGGTTCCG | 0.0658
CTCTTTTA | -0.218
TGCACAAA | -0.229
AGCCATAC | -0.269
CCCGGATC | 0.194
ACCAGTTA | -0.288
CGCTGTCA | 0.274

Sequence | PBM E-score
CCGTTTAA | 0.254
AGTGTCTC | -0.155
AATCCTCG | -0.226
GATGTTGC | 0.021
ACAGACTC | -0.203
ATATGGCA | -0.0337
CACCCACG | -0.0363
GCTGCCAA | -0.0125
CACACAGG | -0.233
AAATCGTA | -0.131
ATGGCAAC | -0.184
GAATGGTA | -0.208
GTGTGTGA | -0.132
GTTCTTCA | -0.229
CATTGAGA | -0.116
GGATTCCC | 0.0375
GGGTTAAC | 0.164
CAGCGTCA | 0.0486
CCAGGTCA | -0.121
AGCAAACA | -0.217
AATCTGAT | -0.0432
TGGCTCAA | -0.203
CCTCTTAC | -0.189
CGTTCAAA | 0.0863
CATTGCGA | -0.222

Sequence | PBM E-score
AGTTCCTG | -0.17
GAAATGAA | 0.0353
CAGAATGA | -0.196
ATCCTTGC | -0.114
AACCATTG | -0.173
CCAAAGCA | -0.135
AATTACCC | 0.0888
CCAGAACC | -0.206
GCTCTGCC | -0.165
CCCTAGCA | -0.0317
GGTTTGCA | 0.0951
AGCTTGGG | -0.0117
CGACGAAG | 0.0563
GTGTAGAA | -0.176
CTATAGAC | 0.0193
ACTACCTA | -0.0759
ATCACTTC | -0.165
CCCTTAAC | 0.0588
AGACCCTC | -0.0954
CGCCTTAA | 0.0389
CGTGGAAG | 0.101
GGGGGACA | -0.187
GGACCTAA | 0.365
GGTGTGGA | 0.192
CATTCACG | -0.00633

Sequence | PBM E-score
AGAGGTCA | -0.139
CGCCGTGA | 0.252
CACGGGGC | 0.221
ATATAATA | 0.048
CACGCGTC | 0.0362
GGGTAACA | 0.0577
CGCCATGC | 0.0141
TGCAACCA | -0.213
GTGGTGAA | -0.0313
CCTGGACA | -0.196
CCAGGCAA | -0.231
CTGCACCA | -0.158
CCTAGTAC | -0.15
AGCGAGAC | -0.0631
CTTTTGTA | -0.0255
ACGACGGG | 0.241
CTCATGCC | -0.103
CAGTAACC | 0.0517
ATTCCCCA | -0.226
GGTTATCA | -0.198
AACTTTGT | -0.107
CTTCTGGC | -0.191
CACGGGCA | 0.123
CAAGAGTA | -0.108
CCGACTCA | 0.259

Sequence | PBM E-score
AGTTTGTA | 0.0191
CGATCGGA | 0.315
GAGACCAC | -0.212
ATACCAGC | 0.0806
AGGTTGAT | -0.262
ATATCGAC | 0.123
CGTATTCA | 0.0341
CGATTACG | -0.0146
ATTTGAAG | 0.0267
GACCTACC | 0.11
CGCGACTC | -0.0784
TATAGAGA | -0.298
CGTGACAC | 0.0335
AGCAGATG | -0.351
CCATTTCA | -0.268
GCAACGAC | -0.0149
CTCATGTA | -0.0741
AATCGAAA | -0.146
AAAGCGGG | 0.297
AACGGCGT | 0.348
CGACTTAG | -0.00588
AGTACGAG | 0.00173
GCTAACTA | -0.0778
GCCCTAAA | 0.131
ACTCTTCG | 0.00681

Sequence | PBM E-score
GCCCCTTA | -0.0344
ACTAACAT | -0.0718
ACCAAACG | 0.0282
CTACTGTC | -0.184
ACTCCAGT | -0.263
GAGTTTAC | 0.115
GAGGTCCC | -0.19
ATATTACC | 0.285
TGCGCACA | -0.0378
AATTATCG | -0.143
TACTAGTA | 0.027
AATATAGC | 0.0403
AGAAGAAA | -0.168
GCTAGCAA | -0.095
CGCGGGGC | 0.321
AATCGGGG | 0.372
GAGTTCGA | -0.0998
GCTCTCGA | -0.189
ACATAGGA | -0.0626
ACTAGAGC | -0.249
CAGCCGCC | 0.0327
CAATCCTG | -0.186
CACTCCGG | 0.219
CGCCGGAC | 0.396
ATGGCTGA | -0.346

Sequence | PBM E-score
AATCGAAG | -0.124
TAGCGAGA | -0.0466
CCGATGCC | 0.288
ATTTGCGG | 0.209
AGCCTAGC | -0.134
AACCCTCT | -0.263
CCGCGTCA | 0.0384
AGACCCGA | 0.287
TGCTACCA | -0.134
CTACACTC | -0.0452
TAGCACGA | -0.075
ACCTCTTG | -0.0574
AACCCGAA | 0.128
ATTAGACC | 0.213
CCGCAAAA | 0.192
CGGGCCCA | 0.328
AGGACCCC | -0.0587
CCGATTCA | 0.15
CAACGACC | 0.02
GTGGGAAA | -0.116
CTCACCCA | -0.23
CCGGGTAC | 0.25

From the supplement of paper PMC3334620
